These results are taken from paper PMC7363125.

Results are given in words; binding and its absence hold for the method and conditions named. In cells and extracts the contact can be indirect. Some entries that bind do so weakly or less than the wild type. Sequences can lack the tags named with a protein.

What all share (test): pull-down; 5 ug GST-PLEKHA7 WW bait (E. coli) coupled to GSH-Sepharose beads, washed, incubated 1 h at 4 °C with normalized HEK cell lysate holding PDZD11-HA or CFP-HA; immunoblot with anti-HA; only the target purified
In general terms: Immunoblotting shows a protein as a band on a membrane.

Assay [1] addresses T1, GST-PLEKHA7 WW1 domain (residues 1-56) N29A (human) (UniProt Q6IQ23).
T1 sequence: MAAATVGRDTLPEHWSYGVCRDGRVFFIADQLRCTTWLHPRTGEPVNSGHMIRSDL

Assay [2] deals with T2, GST-PLEKHA7 WW1 + WW2 domain (1-162) T35A + H75A (human) (UniProt Q6IQ23).
T2 sequence: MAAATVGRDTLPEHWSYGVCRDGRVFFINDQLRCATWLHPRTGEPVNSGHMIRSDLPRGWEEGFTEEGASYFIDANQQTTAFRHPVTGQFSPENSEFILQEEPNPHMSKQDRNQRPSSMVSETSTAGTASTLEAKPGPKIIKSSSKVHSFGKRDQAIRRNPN

The target in assay [3] is T3, GST-PLEKHA7 WW1 domain (residues 1-56) F27A (human) (UniProt Q6IQ23).
T3 sequence: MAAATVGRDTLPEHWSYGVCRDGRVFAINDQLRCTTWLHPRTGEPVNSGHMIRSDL

Assay [4] has as its target T4, GST-PLEKHA7 WW1 + WW2 domain (1-162), mutation within the WW2 domain at position 60 (human) (UniProt Q6IQ23).
T4 sequence: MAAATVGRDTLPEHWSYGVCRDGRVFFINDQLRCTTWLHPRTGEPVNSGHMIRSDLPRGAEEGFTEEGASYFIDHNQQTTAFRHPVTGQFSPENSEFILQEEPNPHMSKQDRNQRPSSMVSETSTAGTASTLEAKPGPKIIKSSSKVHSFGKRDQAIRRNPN

The target of assay [5] is T5, GST-PLEKHA7 WW1 domain (residues 1-56) V25A (human) (UniProt Q6IQ23).
T5 sequence: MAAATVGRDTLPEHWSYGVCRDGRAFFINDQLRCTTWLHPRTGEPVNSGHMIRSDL

For assay [6], the target named is T6, GST-PLEKHA7 WW1 + WW2 domain (1-162) H75A (human) (UniProt Q6IQ23).
T6 sequence: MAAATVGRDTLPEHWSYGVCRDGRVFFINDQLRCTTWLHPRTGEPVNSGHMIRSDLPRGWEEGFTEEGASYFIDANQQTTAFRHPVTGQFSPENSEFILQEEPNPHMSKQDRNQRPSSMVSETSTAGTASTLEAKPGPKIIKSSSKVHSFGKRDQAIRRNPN

Assay [7] has as its target T7, GST-PLEKHA7 WW1 + WW2 domain (1-162) R33A + H75A (human) (UniProt Q6IQ23).
T7 sequence: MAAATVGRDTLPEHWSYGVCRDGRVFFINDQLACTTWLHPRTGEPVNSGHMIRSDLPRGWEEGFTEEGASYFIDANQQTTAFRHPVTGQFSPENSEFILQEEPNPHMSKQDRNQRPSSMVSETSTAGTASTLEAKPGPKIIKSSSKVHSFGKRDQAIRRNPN

Assay [8] concerns the target T8, GST-PLEKHA7 (human) WW1 + WW2 domain (1-162), WT (human) (UniProt Q6IQ23).
T8 sequence: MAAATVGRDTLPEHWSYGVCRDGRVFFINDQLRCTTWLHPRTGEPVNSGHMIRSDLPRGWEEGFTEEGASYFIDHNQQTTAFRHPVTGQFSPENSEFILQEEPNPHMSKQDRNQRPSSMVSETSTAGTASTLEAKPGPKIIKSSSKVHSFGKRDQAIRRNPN

Assay [9] concerns the target T9, GST-PLEKHA7 WW1 domain (residues 1-56) D22A (human) (UniProt Q6IQ23).
T9 sequence: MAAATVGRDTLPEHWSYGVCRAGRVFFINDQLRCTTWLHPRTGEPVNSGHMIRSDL

For assay [10], the target named is T10, GST-PLEKHA7 WW1 + WW2 domain (1-162) W15A (human) (UniProt Q6IQ23).
T10 sequence: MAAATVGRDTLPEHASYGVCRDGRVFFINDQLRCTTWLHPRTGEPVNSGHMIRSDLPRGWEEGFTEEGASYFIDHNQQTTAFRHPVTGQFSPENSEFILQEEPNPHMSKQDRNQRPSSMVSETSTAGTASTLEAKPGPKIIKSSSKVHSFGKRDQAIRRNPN

B1: PDZD11-HA (human) full-length (protein, UniProt Q5EBL8 1-140)
chain: MDSRIPYDDYPVVFLPAYENPPAWIPPHERVHHPDYNNELTQFLPRTITLKKPPGAQLGFNIRGGKASQLGIFISKVIPDSDAHRAGLQEGDQVLAVNDVDFQDIEHSKAVEILKTAREISMRVRFFPYNYHRQKERTVH
Turning to B1, the binding entry in assay [1] is reported as “no binding”; in assay [2] it was “no binding”; in assay [3], “binds”; in assay [4], “binds”; in [5], “no binding”; in assay [6], “binds”. In addition, the binding result in assay [7], in assay [8], in assay [9] and in assay [10] was “binds” throughout.
